Experimental data reported in PubChem BioAssay (NCI).
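GI50 marks 50% less growth.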 Not every entry of the source has a single result; some have several. The list is limited to them. The source may hold further records. The tests behind the records often covered other concentration ranges, not given here; a value can be the end of its range.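 TGI: total growth inhibition.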

What was measured:
Test in all cases: inhibition of tumour cell growth, NCI panel, 384-well format
ACHN renal = tested on: ACHN renal
NCI-H460 NSCLC = tested on: NCI-H460 NSCLC
OVCAR-3 ovarian = tested on: OVCAR-3 ovarian
COLO 205 colon = tested on: COLO 205 colon
UO-31 renal = tested on: UO-31 renal
MCF7 breast = tested on: MCF7 breast
NCI-H322M lung = tested on: NCI-H322M lung
SN12C renal = tested on: SN12C renal
HCT-15 colon = tested on: HCT-15 colon
HL-60(TB) leukemia = tested on: HL-60(TB) leukemia
IGROV1 ovarian = tested on: IGROV1 ovarian
MDA-MB-435 melanoma = tested on: MDA-MB-435 melanoma
SNB-75 CNS = tested on: SNB-75 CNS
A549 NSCLC = tested on: A549 NSCLC
UACC-62 melanoma = tested on: UACC-62 melanoma
SF-539 CNS = tested on: SF-539 CNS
NCI/ADR-RES ovarian = tested on: NCI/ADR-RES ovarian
M14 melanoma = tested on: M14 melanoma
UACC-257 melanoma = tested on: UACC-257 melanoma
SK-MEL-28 melanoma = tested on: SK-MEL-28 melanoma
A498 renal = tested on: A498 renal
BT-549 breast = tested on: BT-549 breast
NCI-H522 lung = tested on: NCI-H522 lung
NCI-H226 lung = tested on: NCI-H226 lung
HCT-116 colon = tested on: HCT-116 colon
U251 glioblastoma = tested on: U251 glioblastoma
MDA-MB-468 breast = tested on: MDA-MB-468 breast
SF-268 CNS = tested on: SF-268 CNS
MALME-3M melanoma = tested on: MALME-3M melanoma
TK-10 renal = tested on: TK-10 renal
OVCAR-8 ovarian = tested on: OVCAR-8 ovarian
HCC-2998 colon = tested on: HCC-2998 colon
786-0 renal = tested on: 786-0 renal
CAKI-1 renal = tested on: CAKI-1 renal
NCI-H23 lung = tested on: NCI-H23 lung
HOP-62 NSCLC = tested on: HOP-62 NSCLC
T-47D breast = tested on: T-47D breast
PC-3 prostate = tested on: PC-3 prostate
MDA-MB-231 breast = tested on: MDA-MB-231 breast
SK-OV-3 ovarian = tested on: SK-OV-3 ovarian
SW-620 colon = tested on: SW-620 colon
SF-295 CNS = tested on: SF-295 CNS
OVCAR-5 ovarian = tested on: OVCAR-5 ovarian
HT29 colon = tested on: HT29 colon
DU-145 prostate = tested on: DU-145 prostate
HOP-92 NSCLC = tested on: HOP-92 NSCLC
SNB-19 CNS = tested on: SNB-19 CNS
KM12 colon = tested on: KM12 colon
EKVX NSCLC = tested on: EKVX NSCLC
SK-MEL-5 melanoma = tested on: SK-MEL-5 melanoma

Compound: CC(=O)c1c(C)c2cnc(Nc3ccc(N4CCNCC4)cn3)nc2n(C2CCCC2)c1=O
- TGI (ACHN renal): 8.69 µM and > 100 µM
- GI50 (NCI-H460 NSCLC): 2.3 µM and > 100 µM
- TGI (NCI-H460 NSCLC): 9.66 µM and > 100 µM
- GI50 (OVCAR-3 ovarian): 9.38 µM and > 100 µM
- GI50 (COLO 205 colon): 5.15 µM and > 100 µM
- GI50 (UO-31 renal): 2.87 µM and > 100 µM
- TGI (UO-31 renal): 9.9 µM and > 100 µM
- GI50 (MCF7 breast): 1.22 µM and > 100 µM
- TGI (MCF7 breast): 7.69 µM and > 100 µM
- GI50 (NCI-H322M lung): 7.67 µM and > 100 µM
- GI50 (SN12C renal): 6.81 µM and > 100 µM
- GI50 (HCT-15 colon): 3.23 µM and > 100 µM
- TGI (HCT-15 colon): 9.16 µM and > 100 µM
- TGI (HL-60(TB) leukemia): 5.12 µM and > 100 µM
- GI50 (IGROV1 ovarian): 2.7 µM and > 100 µM
- TGI (IGROV1 ovarian): 9.41 µM and > 100 µM
- GI50 (MDA-MB-435 melanoma): 5.56 µM and > 100 µM
- GI50 (SNB-75 CNS): 7.55 µM and > 100 µM
- GI50 (A549 NSCLC): 5.01 µM and > 100 µM
- GI50 (UACC-62 melanoma): 5.4 µM and > 100 µM
- GI50 (SF-539 CNS): 9.62 µM and > 100 µM
- GI50 (NCI/ADR-RES ovarian): 9.96 µM and > 100 µM
- GI50 (M14 melanoma): 5.16 µM and > 100 µM
- GI50 (UACC-257 melanoma): 6.82 µM and > 100 µM
- GI50 (SK-MEL-28 melanoma): 6.65 µM and > 100 µM
- GI50 (A498 renal): 6.72 µM and > 100 µM
- GI50 (BT-549 breast): 7.61 µM and > 100 µM
- GI50 (NCI-H522 lung): 8.19 µM and > 100 µM
- GI50 (NCI-H226 lung): 6.71 µM and > 100 µM
- GI50 (HCT-116 colon): 3.3 µM and > 100 µM
- TGI (HCT-116 colon): 9.8 µM and > 100 µM
- GI50 (U251 glioblastoma): 6.03 µM and > 100 µM
- GI50 (MDA-MB-468 breast): 4.39 µM and > 100 µM
- GI50 (SF-268 CNS): 6.58 µM and > 100 µM
- GI50 (MALME-3M melanoma): 5.27 µM and > 100 µM
- GI50 (TK-10 renal): 2.23 µM and > 100 µM
- TGI (TK-10 renal): 9.88 µM and > 100 µM
- GI50 (OVCAR-8 ovarian): 9.35 µM and > 100 µM
- GI50 (HCC-2998 colon): 5.1 µM and > 100 µM
- GI50 (786-0 renal): 3.3 µM and > 100 µM
- TGI (CAKI-1 renal): 7.41 µM and > 100 µM
- GI50 (NCI-H23 lung): 8.27 µM and > 100 µM
- GI50 (HOP-62 NSCLC): 7.12 µM and > 100 µM
- GI50 (T-47D breast): 8.06 µM and > 100 µM
- GI50 (PC-3 prostate): 7.87 µM and > 100 µM
- GI50 (MDA-MB-231 breast): 7.69 µM and > 100 µM
- GI50 (SK-OV-3 ovarian): 8.03 µM and > 100 µM
- GI50 (SW-620 colon): 644 nM and > 100 µM
- TGI (SW-620 colon): 8.83 µM and > 100 µM
- GI50 (SF-295 CNS): 7.13 µM and > 100 µM
- GI50 (OVCAR-5 ovarian): 5.32 µM and > 100 µM
- GI50 (HT29 colon): 5.88 µM and > 100 µM
- GI50 (DU-145 prostate): 7.72 µM and > 100 µM
- GI50 (HOP-92 NSCLC): 8.02 µM and > 100 µM
- GI50 (SNB-19 CNS): 7.23 µM and > 100 µM
- TGI (KM12 colon): 7.46 µM and > 100 µM
- GI50 (EKVX NSCLC): 8.49 µM and > 100 µM
- GI50 (SK-MEL-5 melanoma): 1.56 µM and > 100 µM
- TGI (SK-MEL-5 melanoma): 7.55 µM and > 100 µM
